Experimental data published in paper PMC4336329 (PLoS ONE, 2015).
The whole screen tested about 310,000 compounds, of which about 14,000 (4.5%) showed an effect of 50% or more. Effects have a minus sign here. The list shows a part of the results.

biological target: human ether-à-go-go-related gene (hERG) potassium channel (human, UniProt Q12809); experiment: primary screen, population patch clamp on CHO cells stably expressing hERG
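Note: peak tail current of the secondary pulse compared with the same well before compound.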

human ether-à-go-go-related gene (hERG) potassium channel, sequence (Q12809 whole entry, looked up): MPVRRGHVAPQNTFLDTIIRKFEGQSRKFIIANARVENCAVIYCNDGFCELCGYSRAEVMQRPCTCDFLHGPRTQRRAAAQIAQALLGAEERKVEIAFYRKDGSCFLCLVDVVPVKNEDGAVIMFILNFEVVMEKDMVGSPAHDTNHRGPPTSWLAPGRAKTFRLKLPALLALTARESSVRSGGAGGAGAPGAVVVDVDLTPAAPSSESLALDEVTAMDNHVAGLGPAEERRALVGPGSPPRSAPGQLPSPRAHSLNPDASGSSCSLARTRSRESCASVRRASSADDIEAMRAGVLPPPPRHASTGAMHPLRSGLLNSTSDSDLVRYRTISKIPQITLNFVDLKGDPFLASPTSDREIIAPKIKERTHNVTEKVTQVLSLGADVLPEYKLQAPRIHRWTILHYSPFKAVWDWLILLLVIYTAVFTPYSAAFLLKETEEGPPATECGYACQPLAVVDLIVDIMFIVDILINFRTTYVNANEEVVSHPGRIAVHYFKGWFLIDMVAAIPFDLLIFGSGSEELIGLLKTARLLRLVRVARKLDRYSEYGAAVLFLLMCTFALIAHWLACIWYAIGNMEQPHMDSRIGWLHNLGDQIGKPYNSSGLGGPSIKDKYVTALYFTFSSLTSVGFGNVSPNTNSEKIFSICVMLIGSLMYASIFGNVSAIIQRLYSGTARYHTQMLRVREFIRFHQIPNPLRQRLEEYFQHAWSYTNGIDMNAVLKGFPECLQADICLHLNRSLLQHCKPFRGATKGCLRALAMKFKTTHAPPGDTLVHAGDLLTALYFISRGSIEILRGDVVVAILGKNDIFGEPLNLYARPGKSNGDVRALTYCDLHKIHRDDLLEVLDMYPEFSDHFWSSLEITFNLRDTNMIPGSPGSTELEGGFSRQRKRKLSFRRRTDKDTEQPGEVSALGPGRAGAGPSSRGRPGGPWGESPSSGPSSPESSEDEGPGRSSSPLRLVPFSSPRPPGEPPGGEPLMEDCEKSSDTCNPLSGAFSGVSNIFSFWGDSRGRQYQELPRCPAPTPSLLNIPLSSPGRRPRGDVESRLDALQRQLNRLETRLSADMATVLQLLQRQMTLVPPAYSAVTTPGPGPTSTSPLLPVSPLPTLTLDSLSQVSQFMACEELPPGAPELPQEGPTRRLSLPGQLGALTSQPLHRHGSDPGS

Structure (SMILES)	hERG current change (%, negative = inhibition) at 10uM
COc1cccc(NC(=S)N(CCN(C)C)Cc2cccs2)c1	-10.5%
Cc1cc(OCC(=O)NCC(O)c2ccccc2)c2c3c(c(=O)oc2c1)CCC3 (centres unmarked)	16.1%
CCc1ccc(NC(=O)CSc2nnc(C3CC3)n2CC2CCCO2)cc1 (centres unmarked)	-22.4%
CC(C)N(Cc1ccccc1)C(=O)CC(=O)N(Cc1ccccc1)C(C)C	-15.6%
Cc1ccc(-n2ncc3c2CCCC3NC(=O)c2ccccc2N2CCOCC2)cc1C (centres unmarked)	-34.1%
Cc1nc2ccc(S(=O)(=O)NCC(=O)N3CCN(c4ccccn4)CC3)cc2s1	3.8%
Cc1oc(-c2ccc(-c3ccccc3)cc2)nc1CN(C)C1CCOC1 (centres unmarked)	-55.8%
CC(Oc1ccc(Cl)cc1)C(=O)NCCCn1ccnc1 (centres unmarked)	-7.09%
O=C(NCC1CCCO1)c1cc2c([nH]c3ccccc32)c(-c2cccc(Br)c2)n1 (centres unmarked)	-9.55%
C=CCN1C(=O)/C(=C2\SC(N3CCOCC3)=NC2=O)c2cc(Br)ccc21	-7.39%
CCCOc1cccc(C(=O)NC(=S)Nc2cccc(NC(=O)c3ccccc3Cl)c2)c1	3.2%
Cc1ccc(OCC(=O)Nc2ccccc2-c2ccccc2)cc1	9.37%
CCOCCCNC(=O)C(NC(=O)CNC(=O)c1ccccc1)c1ccc(OC)cc1 (centres unmarked)	15%
O=C(CSc1nnc(-c2ccncc2)o1)Nc1cc(F)ccc1F	12.1%
Cn1c2ccccc2c2cnn(CC(=O)NCCCN3CCN(c4ccccc4F)CC3)c(=O)c21	-76.3%
Cc1ccccc1OCc1nc2ccccc2[nH]1	1.95%
COc1cc(Cl)ccc1NC(=O)COc1ccccc1C(=O)N1CCN(c2ccc(O)cc2)CC1	-53.9%
COc1cc(/C=C(\C#N)c2nc3ccccc3[nH]2)ccc1O	6.67%
Cc1c(O)cc2c(c1O)C(=O)CC(c1ccccc1)O2 (centres unmarked)	1.79%

Structure (SMILES)	hERG current change (%, negative = inhibition) at 10uM
CCOc1cc(N2CCOCC2)c(OCC)cc1NC(=O)COC(=O)COc1cc(C)cc(C)c1	-0.128%
Cc1cc([N+](=O)[O-])ccc1NCc1ccc2c(c1)OCCO2	5.37%
S=C(NCc1ccccc1)NCc1ccccn1	0.0213%
COc1cccc(NC(=O)C2CCN(S(=O)(=O)c3ccc4[nH]c(=O)oc4c3)CC2)c1	8.6%
CCOc1ccc(NC(=O)CC2C(=O)NCCN2C(=O)c2ccc(Cl)cc2)cc1 (centres unmarked)	-34.8%
CCOc1ccc(N(CC(=O)NC2CCCC2)S(=O)(=O)c2ccccc2)cc1	12%
CCOC(=O)NC(=O)c1cn(CCN(C)C)c(=O)[nH]c1=O	18.6%
Cc1c(C(=O)Nc2c3c(nn2C(C)(C)C)CS(=O)(=O)C3)cccc1[N+](=O)[O-]	1.85%
CN(CCOc1ccccc1)c1ccc(S(=O)(=O)N2CCCCC2)cn1	-11.6%
O=S(=O)(NCC(c1cccnc1)N1CCOCC1)c1ccccc1 (centres unmarked)	4.6%
CC(C)CCc1noc(CN2CCN(c3ccc(Cl)cn3)CC2)n1	-34.2%
C=CCOn1c(C)c(C(C)=O)c2c3nonc3ccc21	7.01%
O=C(CCN1C(=O)/C(=C\c2ccccc2)SC1=S)NNC(=O)c1ccccc1O	11%
CSc1ccc(/C=C2\NC(=O)NC2=O)cc1	5.37%
Clc1ccc(Cl)c(OCCCCN2CCCCC2)c1	-59.2%
COc1cc(C(=O)NC(C)c2ccccc2)ccc1OCC(=O)N1CCOCC1 (centres unmarked)	2.96%
COc1ccc(C2NC(=O)c3ccccc3N2)cc1OC (centres unmarked)	13%
CCCCOc1ccc(C(=O)N2CCCCCC2)cc1	3.1%
Cc1ccc2[nH]c(-c3ccccc3)c(CN3CCCC3)c(=O)c2c1	-12.2%

Structure (SMILES)	hERG current change (%, negative = inhibition) at 10uM
Nc1[nH]nc2c1NN(c1ccc(Cl)cc1Cl)N2	12.4%
CCCS(=O)(=O)N1CCCC(C(=O)NCCc2ccc(Cl)cc2)C1 (centres unmarked)	-17.9%
O=C(Nc1ccc2c(c1)OCO2)C1CC(=O)N(c2cccc(Cl)c2)C1 (centres unmarked)	23.9%
O=C(Nc1cccc(C(=O)O)c1)/C(=C\C=C\c1ccccc1)NC(=O)c1ccccc1	10.3%
CCc1nc(SCC(=O)Nc2ccc(C(=O)O)cc2)n[nH]1	5.9%
Cc1c(C)n(C(=O)CSc2ncn[nH]2)c2ccccc12	-7.08%
C=CCn1c(-c2cc(-c3ccccc3)sc2N)n[nH]c1=S	9.13%
CCOC(=O)c1ccccc1NC(=O)COC(=O)C1CCN(S(=O)(=O)c2ccccc2C(=O)OC)CC1	2.86%
Cc1nc(NCc2ccc3c(c2)OCO3)c2oc3ccccc3c2n1	-15.3%
Clc1cccc(CN2CCCCCCC2)c1Cl	-9.4%
O=C(CCC1CCCN(C(=O)c2ccc3c(c2)OCCO3)C1)NCc1ccccc1F (centres unmarked)	15.2%
CCOC(=O)Cc1cc(=O)n2[nH]c(-c3ccccc3)c(-c3ccccc3)c2n1	-18%
Cc1cccc(NC(=O)CN2C(=O)N/C(=C\c3cccn3-c3cccc(C(=O)O)c3)C2=O)c1	17.4%
COC(=O)c1c(O)cc(C(C)(C)C)n(-c2ccccc2)c1=O	5.99%
COC(=O)c1c(SCC(=O)Nc2ccc(C)c(C)c2)nc(=O)[nH]c1C	2.16%
COCCN(C(=S)Nc1ccc(C)c(C)c1)C(C)c1ccco1 (centres unmarked)	-6.21%
CCCCN(C(=O)c1ccc([N+](=O)[O-])o1)c1c(N)n(CC(C)C)c(=O)[nH]c1=O	-8.74%
COc1ccc(S(=O)(=O)N(CC(=O)NC(C)C)Cc2ccccc2)cc1	-8.62%
